Among the data in PubChem BioAssay AID463173 (ICCB-Longwood Screening Facility, Harvard Medical School, 2010) are survival values, retold here.

The structures appear in SMILES notation. Among all 52,000 compounds or so, about 4,300 (8.3%) were called active. Rule as the data show it: active = survival mostly below about 52% (no sharp cut-off); inactive = mostly above about 56%. The list shows a part of the results.

The assay has as its system DeltatarO mutant. Nature of the assay: S. aureus survival, RN4220 and DeltatarO strains – OD600, teichoic acid synthesis inhibitors, primary screen (AID 463173). The conditions noted are these: S. aureus RN4220 wild type/DeltatarO growth, OD600, 18 h, stronger effect = lower value, screened at 18.75 µg/mL (by protocol).
In the case of `CCCCOc1ccc(Cn2c(=O)sc3ccccc32)cc1OC`, the survival is active: -3%.

Regarding `CCCn1c(CCC(=O)Nc2cc(OC)cc(OC)c2)nc2cccnc21`, the survival was inactive: 78%. On to `COC(=O)c1scc(-c2ccc(C)cc2)c1S(=O)(=O)Nc1cc(Cl)c(OC)cc1OC`, for which the survival is inactive: 102%. As to `Cc1ccccc1CCNC(=O)c1ccc2c(c1)nc1n2CCOC1`, the survival was inactive: 84%. Turning to `CCCN(CCC)CCCNC(=O)C1CCCN(Cc2nc(-c3ccc(Cl)cc3)oc2C)C1` (configuration not stated), the survival is inactive: 130%.

For `COCCNC(=O)C1CCN(C(=O)c2cc3sccc3n2Cc2ccc(Cl)cc2)CC1`, the survival is inactive: 110%. Turning to `COc1ccc(C2(Nc3cccc(F)c3)C(=O)c3ccccc3C2=O)cc1`, the survival is inactive: 49%. For `COc1ccccc1NC(=O)CSC1=Nc2ccccc2C2=NC(CCC(=O)NCc3ccco3)C(=O)N12` (configuration not stated), the survival is inactive: 87%. With `O=c1ccc2cc(S(=O)(=O)Nc3ccc(F)c(Cl)c3)ccc2[nH]1`, the survival was inactive: 89%. Next, `CCOc1ccc2nc(SCC(=O)Nc3ccc(F)cc3)nc(-c3ccccc3)c2c1`: inactive: 108%. Next, `CCOC(=O)Cc1ccc(NC(=O)N2CCSc3ccccc32)cc1`: inactive: 71%; `Cc1ccc(-c2nc(CS(=O)CC(=O)NCc3ccccc3Cl)c(C)o2)cc1` (configuration not stated): active: 54%; `CC1=C(C(=O)Nc2ccc(Cl)cc2)C(c2ccccc2F)n2nc(SCc3cccc(Cl)c3)nc2N1` (configuration not stated): inactive: 67%. For `Cc1ccc2oc(-c3ccc(NC(=O)C(F)(F)F)cc3)nc2c1`, the survival is inactive: 61%.

On to `COc1ccc(OC)c(NC(=O)C2Cc3ccccc3CN2S(=O)(=O)c2ccc(F)cc2)c1` (configuration not stated), for which the survival is inactive: 57%. To `Cc1ccc(Cn2c(=O)n(CCc3ccc(Cl)cc3)c(=O)c3ccccc32)cc1` belongs active: 42%; to `COc1ccc(-n2nc3cc(C)c(NC(=O)c4ccc5c(c4)OCO5)cc3n2)cc1`, inactive: 88%.

`CCc1ccc(CNC(=O)c2cc3n(n2)CCCN(Cc2ccccc2)C3=O)cc1`: the survival is inactive: 97%.

Turning to `COc1ccc(NC(=O)Cn2c(=O)n(Cc3ccccc3OC)c(=O)c3cccnc32)cc1Cl`, the survival was inactive: 74%. In the case of `Cc1ccc(-n2ncc3c(NC(C)c4ccccc4)ncnc32)cc1` (configuration not stated), the survival was inactive: 94%. `COc1cccc(CNC(=O)Cc2c(C)c3c(cc(C)c4c(C)c(C)oc43)oc2=O)c1`: the survival is inactive: 89%. Next, `O=S(=O)(c1ccc(Cl)cc1)c1nc(-c2cccs2)oc1SCc1ccc(F)cc1`: inactive: 67%; `Cn1nnc2c(NCc3ccc(Cl)cc3)ncnc21`: inactive: 81%; `COc1ccc(C2=C(C)C(N3CCC(C(=O)Nc4ccccc4F)CC3)=NS2(=O)=O)cc1`: inactive: 90%. `Cc1c(C)n(Cc2ccc(F)cc2)c2ccc(C(=O)N3CCN(c4ccc(F)cc4)CC3)cc12`: the survival is inactive: 83%. Regarding `CCC(C(=O)NCCc1ccccc1)n1nc(C)c2sc3ccccc3c2c1=O` (configuration not stated), the survival is inactive: 71%. To `CN1CCc2c(sc(N)c2C(=O)O)C1` belongs inactive: 80%; to `O=C(O)CC1OC(=O)c2ccccc21` (configuration not stated), inactive: 55%; to `O=C(C1CCN(c2ncnc3c2nc2n3CCCCC2)CC1)N1CCN(c2ccccc2F)CC1`, inactive: 86%. In the case of `O=C(COc1ccc(F)cc1)NCCCn1ccnc1`, the survival was inactive: 96%. As to `CCSc1ncc(Cl)c(C(=O)Nc2nnc(CC)s2)n1`, the survival was inactive: 72%. Take `O=C(c1ccccc1F)N1c2ncnn2C2(CCCCC2)[C@@H]2CCCC[C@@H]21`: the survival was inactive: 109%. As to `Cc1cccc(Nc2nc(N)nc(N)c2S(=O)(=O)c2ccccc2)c1`, the survival is inactive: 68%. In the case of `CC1CCc2c(cc(-c3ccccc3)n2-c2ccc(C(=O)NC(C)C)cc2)C1` (configuration not stated), the survival was inactive: 96%. `CCOc1ccccc1NC(=O)C1CCN(S(=O)(=O)c2ccc3[nH]c(=O)oc3c2)CC1`: the survival is inactive: 89%. To `CCc1cccc(OCC(=O)Nc2ccc(S(=O)(=O)Nc3ncccn3)cc2)c1` belongs active: 43%. On to `CC(C)(C)c1ccc(OCc2nc3ccccc3n2CCOc2ccccc2)cc1`, for which the survival was active: 10%. On to `Cc1cccc(C)c1OCc1nc2c3cnn(-c4ccccc4F)c3ncn2n1`, for which the survival was inactive: 109%.

With `COc1cccc(NC(=O)CSc2nc3c([nH]c4ccccc43)c(=O)n2-c2cc(C)cc(C)c2)c1`, the survival was inactive: 89%. For the molecule `Cc1cc(C)cc(NC(=O)Cc2csc(C)n2)c1`, the survival was active: 39%.

As to `COc1ccc(CNC(=O)c2cc3c(=O)n(Cc4cccnc4)ccc3nc2C)cc1`, the survival is active: 37%. In the case of `COc1ccccc1CNC(=O)c1cc2c(=O)oc3ccc(C)cc3c2s1`, the survival was inactive: 65%. Take `COc1ccccc1CCNC(=O)Cc1ccc(NC(=O)N2CCSc3ncccc32)cc1`: the survival is inactive: 66%. Next, `CCOC(=O)c1ccccc1NC(=O)CN(c1cccc(C)c1C)S(=O)(=O)c1ccccc1`: inactive: 144%; `Cc1ccc(-n2c(=O)c3c4c(sc3n(Cc3cc(=O)n5cc(Cl)ccc5n3)c2=O)CCC4)cc1C`: inactive: 169%; `CN(C)S(=O)(=O)c1ccc(S(=O)(=O)N2CCCC(C(=O)NC(C)(C)C)C2)cc1` (configuration not stated): inactive: 102%. Take `CC(=O)N1CCCc2cc(S(=O)(=O)N3CCCC(C(=O)NCc4ccccc4Cl)C3)ccc21` (configuration not stated): the survival is inactive: 95%. `O=C(Cn1c(=O)n(CCc2ccccc2)c(=O)c2cccnc21)Nc1ccc(F)cc1`: the survival was inactive: 64%. Next, `CCN(C1CCCCC1)S(=O)(=O)c1ccc(S(=O)(=O)NC2CC2)cc1`: inactive: 90%.

`CCC(=O)N1CCc2cc(S(=O)(=O)NC(C(=O)NCCc3ccc(OC)c(OC)c3)C(C)C)ccc21` (configuration not stated): the survival is inactive: 129%. Next, `Cc1cc(C)c(NC(=O)c2nc3ccccc3nc2N2CCCCC2)c(C)c1`: inactive: 90%; `COc1cc(NC(=O)C2CCN(C(=O)c3sc4nc[nH]c(=O)c4c3C)CC2)cc(OC)c1OC`: inactive: 87%.

For `CC1=NN(C(=S)c2ccccc2)C(C)(O)C1` (configuration not stated), the survival was inactive: 79%. For `O=C(CCS(=O)(=O)c1cc(Br)cc2c1N(C(=O)C1CC1)CC2)N1CCN(c2cccc(Cl)c2)CC1`, the survival is inactive: 91%.

With `COc1ccc(-c2nc3ccccc3n3c(-c4cccc(C)c4)c4c(=O)n(C)c(=O)n(C)c4c23)cc1OC`, the survival was inactive: 69%. In the case of `CCC(C)NC(=O)c1c(C)oc2ncn(CC(C)C)c(=O)c12` (configuration not stated), the survival was inactive: 79%. In the case of `O=C(O)CNC(=O)c1sc2ccccc2c1Cl`, the survival is inactive: 84%.
